Results reported in article PMC7819943, “Rice protein-binding microarrays: a tool to detect cis-acting elements near promoter regions in rice”.
The list shows a part of the results.

target: T1, OsWOX13 (Oryza sativa, UniProt Q5QMM3 1-267); assay: protein-binding microarray (RPBM); PBS, 2% BSA, 51.3 ng/ul salmon testes DNA, 50 uM zinc acetate, 200 nM TF, 25 C, 1 h; high values mean tight binding; conditions: protein: recombinant; tags: N-terminal polyhistidine and DsRed monomer fusion (pET32a); label: CyDye5-dUTP incorporated in the synthesized complementary strand; 3' TTTTT single-stranded linker to array surface; dsDNA, one strand shown
T1 sequence: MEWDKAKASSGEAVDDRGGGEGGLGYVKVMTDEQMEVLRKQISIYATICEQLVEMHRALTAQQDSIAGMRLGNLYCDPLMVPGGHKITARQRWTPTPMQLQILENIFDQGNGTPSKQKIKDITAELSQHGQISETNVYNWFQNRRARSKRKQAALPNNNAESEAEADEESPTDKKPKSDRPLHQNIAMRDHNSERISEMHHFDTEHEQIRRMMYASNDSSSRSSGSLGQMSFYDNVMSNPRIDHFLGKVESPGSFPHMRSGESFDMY
Outline: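 Transcription factors were made in E. coli BL21-CodonPlus as N-terminal fusions to a polyhistidine tag and DsRed, then purified on Ni–NTA. After primer extension with Cy5-dUTP and blocking with 2% BSA, a custom Agilent array was exposed for 1 h at 25 °C to 200 nM protein in PBS, 2% BSA, salmon testes DNA and 50 µM zinc acetate. Washed arrays were scanned on an Axon 4000B, and the binding signal is per-feature fluorescence intensity in arbitrary units.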

Sequence | binding signal
CCTTCGTTTATTTTCTAATCTCAATCCTACTTCTATTTTCCGGAGTCACCTAGTGCAG | 3760 fluorescence intensity (a.u.)
GGAGCAATCACTGGCACACTGCTCTCTAACACACACACACCGGAGTCACCTAGTGCAG | 10300 fluorescence intensity (a.u.)
ATATAGACTACTTACAAATCTAATTACATAAACGAAAGCTCGGAGTCACCTAGTGCAG | 3690 fluorescence intensity (a.u.)
AGGTGTTGATTTTGGGTGGCGGGCCCAATCGGATAGGCCACGGAGTCACCTAGTGCAG | 3770 fluorescence intensity (a.u.)
AATGATTAGAATTTGGTAAAGTAGAGGACAAAGATAAAATCGGAGTCACCTAGTGCAG | 7910 fluorescence intensity (a.u.)
TTTTAAATTTCATTATATAATGATTAATTTGGGAATGAGGCGGAGTCACCTAGTGCAG | 30800 fluorescence intensity (a.u.)
AACAACTTTGATCATTATTTAAATTGTTAACAAATATATGCGGAGTCACCTAGTGCAG | 10800 fluorescence intensity (a.u.)
TATGATGACACAATTAACCGTAATTTCTAAACCAAATAATCGGAGTCACCTAGTGCAG | 21500 fluorescence intensity (a.u.)
ATGCCATATCTTGCAAGATTGATGAGTAGCCAATTATTACCGGAGTCACCTAGTGCAG | 6030 fluorescence intensity (a.u.)
TCCACATCATAAATTGTTGAGAGACTGCAAATCGTCTAGCCGGAGTCACCTAGTGCAG | 3640 fluorescence intensity (a.u.)
GCAGCTGCACTAATTGACATATGCATGCAGCAGCTTCAGTCGGAGTCACCTAGTGCAG | 19000 fluorescence intensity (a.u.)
CAATTAATAAATAAATTTGATACCTCAAATAAATAAGTCACGGAGTCACCTAGTGCAG | 7780 fluorescence intensity (a.u.)
ACTAATCTGATTGTGTCACTTGTGCGATTGATGGAGTTCACGGAGTCACCTAGTGCAG | 23900 fluorescence intensity (a.u.)
TTAATCACATGTTAATTAAATGTGTGGGTTAATTGTTGTTCGGAGTCACCTAGTGCAG | 36100 fluorescence intensity (a.u.)
CCCTAAATTTCCGCGAAATCAGCAACCGAACACAGATTAGCGGAGTCACCTAGTGCAG | 7110 fluorescence intensity (a.u.)
CATATTGATGCTAATGAATCTAGACATATATACCTATCTACGGAGTCACCTAGTGCAG | 3520 fluorescence intensity (a.u.)
CTGAAATTGTACACAAACAGTTTGGAATTTGGAGCAAGCACGGAGTCACCTAGTGCAG | 8330 fluorescence intensity (a.u.)
CTAAATTGAATCTATCCACTTTGCCTCCTAAACTCACCCCCGGAGTCACCTAGTGCAG | 54600 fluorescence intensity (a.u.)
CAAATTACGTATGTAAATTGCGAGACGAATCTATTAAGCACGGAGTCACCTAGTGCAG | 27200 fluorescence intensity (a.u.)
TAGTGACTGATTAAATTAATTACCACCCCATCCATTAACTCGGAGTCACCTAGTGCAG | 42800 fluorescence intensity (a.u.)
ACTATTATATTGATCAATTGATTACATAATTCACGTGTCGCGGAGTCACCTAGTGCAG | 43700 fluorescence intensity (a.u.)

Sequence | binding signal
ACATTTAATGATGAGCTTCATTCATTCTCATCTTGTTTGGCGGAGTCACCTAGTGCAG | 7730 fluorescence intensity (a.u.)
CCTAGATTTGACACGGGTGCTCGCATTTACGGCTAATTATCGGAGTCACCTAGTGCAG | 15000 fluorescence intensity (a.u.)
TTAATTGATTTGGAAATCCTCTAGTTATCTGGATTAGTTTCGGAGTCACCTAGTGCAG | 37300 fluorescence intensity (a.u.)
TTCTAGGATTTTCTCTAATTTATTAGAGCACCACGTGTCGCGGAGTCACCTAGTGCAG | 5320 fluorescence intensity (a.u.)
GATCACTTCAATTAAGCAGTTGTTGTACTTAGAGCTAAGACGGAGTCACCTAGTGCAG | 4300 fluorescence intensity (a.u.)
TCCTTAAATCAACATCAATTCGGCTTGTTGTTATCATCTACGGAGTCACCTAGTGCAG | 7560 fluorescence intensity (a.u.)
TTTTGATTGCCAATAAGGTTTTCATCGGGGTTTCAGCCGACGGAGTCACCTAGTGCAG | 34800 fluorescence intensity (a.u.)
AAAACATAACAAATTTTCTAGATGAGACTTTGCATATATGCGGAGTCACCTAGTGCAG | 3590 fluorescence intensity (a.u.)
AGCTTCAGATTGAACGACCAATACTATATGCCAATTGAATCGGAGTCACCTAGTGCAG | 4260 fluorescence intensity (a.u.)
CAAAATTGAAAACTTCTTATTTGAAATTCAAAACTTTCAACGGAGTCACCTAGTGCAG | 10200 fluorescence intensity (a.u.)
CGTACTTAATTTTATGATCTACAATCGTTAGGCCATGTGACGGAGTCACCTAGTGCAG | 8690 fluorescence intensity (a.u.)
AGCAGCATGATTAGTACAGCACACCTTTGCGGATCCAATGCGGAGTCACCTAGTGCAG | 11500 fluorescence intensity (a.u.)
CTGCGAAATTGATAACAAAGTGAACAAGGCCTTAATCAACCGGAGTCACCTAGTGCAG | 30100 fluorescence intensity (a.u.)
CTAAATTTTACTAAAATTTAGTAAGGTTTATTTAGGCCACCGGAGTCACCTAGTGCAG | 15500 fluorescence intensity (a.u.)
TTATAATTGACACTACGAGAATGGGTCTTTACTGCCGGTTCGGAGTCACCTAGTGCAG | 57700 fluorescence intensity (a.u.)
GGTGAAATTAATCTCCTGGCAAATTAAGTCAAGATGCACCCGGAGTCACCTAGTGCAG | 12000 fluorescence intensity (a.u.)
CGAGATTGGGACATGCGTGCAAGTCACCACAAGCTCTCTCCGGAGTCACCTAGTGCAG | 10500 fluorescence intensity (a.u.)
AGGTTAATTTAGCAAATACACTGTAGCAATCAAGCGGCTCCGGAGTCACCTAGTGCAG | 14100 fluorescence intensity (a.u.)
ATTTGATTATTCAAATGCAGGTGGAGTCAATGAGCAACCACGGAGTCACCTAGTGCAG | 8370 fluorescence intensity (a.u.)
GAATCACCTCGTTGATTTGATCTTATCGCGAGTATGATGGCGGAGTCACCTAGTGCAG | 4270 fluorescence intensity (a.u.)
ACTAAATCAAAGATTAACAGTAGCAGCAGAGTAAAGAGAGCGGAGTCACCTAGTGCAG | 11400 fluorescence intensity (a.u.)
